# Measured values from PubChem BioAssay AID1240 (Sanford-Burnham Center for Chemical Genomics, 2008).
# Among all 50,000 compounds or so, about 800 (1.6%) showed an effect of 50% or more. The list shows a part of the results.
# Target: Bcl-2-like protein 10 (Homo sapiens) (UniProt Q9HD36)
# Assay: TR3 peptide-Bcl-B binding displacers, biochemical primary FP assay, phenotype converters (AID 1240);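 further: 0% = Bcl-B with tracer peptide and DMSO and 100% = tracer peptide lacking Bcl-B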
# Conditions: GST-Bcl-B / FITC-TR3 peptide fluorescence polarization; stronger effect = higher value; compound at 3.75 mg/L
# UniProt Q9HD36, sequence (Q9HD36 whole entry, looked up): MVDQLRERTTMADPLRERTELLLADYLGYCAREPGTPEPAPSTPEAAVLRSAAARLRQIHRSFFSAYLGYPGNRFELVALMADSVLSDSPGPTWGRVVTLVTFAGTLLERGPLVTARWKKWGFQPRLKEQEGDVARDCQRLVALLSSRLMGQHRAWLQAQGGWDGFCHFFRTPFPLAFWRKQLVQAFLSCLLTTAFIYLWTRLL
row,Structure (SMILES),displacement
1,O=C(/C=C/c1ccccc1)N1CCc2ccccc21,-5.5%
2,Clc1ccccc1CN1CCN(N=Cc2cccs2)CC1,-4%
3,COC(=O)c1ccc(/C=N/NC(=O)COc2ccc(I)cc2)cc1,3%
4,Cc1ccc(Nc2cc(-n3nc(C)cc3C)ncn2)cc1,-2.5%
5,CNC(=S)NCCc1c[nH]c2ccc(OC)cc12,-3.2%
6,CC1(C)CC(=O)C2=C(C1)Nc1ccccc1N(C(=S)Nc1ccccc1)C2c1ccc2c(c1)OCO2 (stereo unspecified),-4.5%
7,O=C(Nc1ccc(I)cc1Cl)c1cc2ccccc2o1,-0.2%
8,O=C(/C=C/NNC(=O)c1ccccc1)c1ccc(Br)cc1,-6.1%
9,Cc1ccc(C(=O)N/C(=C/c2cccnc2)C(=O)Nc2ccc(Br)cc2)cc1,-10.5%
10,Cc1cccn2c(=O)c(C=O)c(N3CCCCC3)nc12,3.9%
11,COc1ccc2c(=O)c(Oc3ccccc3Br)coc2c1,11.6%
12,CCSc1nc2sc3c(c2c2nnnn12)CCN(C)C3,18.6%
13,Cc1ccc(S(=O)(=O)Nc2cc(C(C(=O)OC(C)C)C(=O)C(F)(F)F)c(O)c3ccccc23)cc1 (stereo unspecified),-5.6%
14,CS(=O)(=O)N1CCN(c2ccc([N+](=O)[O-])c(N3CCCC3)c2)CC1,0.7%
15,O=C1NC(=S)N/C1=C\c1ccc(F)c(Br)c1,-5.1%
16,COC(=O)CN(c1ccc(Br)cc1)S(=O)(=O)c1ccccc1,6.2%
17,COc1ccc(C2NC(=O)NC(C)=C2C(=O)Nc2ccc(C)cc2)cc1OC (stereo unspecified),1.9%
18,CCC1CCCCN1S(=O)(=O)c1ccc(C)c(C)c1 (stereo unspecified),-10.7%
19,COc1ccc(NC(=O)CSc2ccccc2N)c([N+](=O)[O-])c1,3%
20,Cc1cc(Br)cc2c(N=NC(=O)c3cccnc3)c(O)[nH]c12,7.8%
21,Cc1cc(/C=C2\NC(=O)NC2=O)c(C)n1-c1cccc([N+](=O)[O-])c1,10.6%
22,O=C(c1ccccc1Cl)N1CCN(c2nc(-c3ccccc3)c3cc(Br)ccc3n2)CC1,-5.8%
23,Cc1c(C(c2ccc(I)o2)c2c(C)n(C)n(-c3ccccc3)c2=O)c(=O)n(-c2ccccc2)n1C,-2.8%
24,CC1=NNC(=O)C1CCC(=O)N/N=C(\C)c1cccc([N+](=O)[O-])c1 (stereo unspecified),-10.8%

row,Structure (SMILES),displacement
1,O=C(O)C1CCCN1C(=O)Oc1ccccc1 (stereo unspecified),5.6%
2,CCOC(=O)c1cnn(CCOc2ccccc2)c1N,2.7%
3,COC(=O)COc1ccc2ccc(=O)oc2c1,9.2%
4,NC(=O)CSc1nc2ccc(Br)cc2[nH]1,0.6%
5,COc1ccc2nc(SCC(=O)Nc3ccc(C)cc3)[nH]c2c1,-11.5%
6,CCc1cc(C)cc(OCCOc2cccc(C=C3C(=O)NC(=O)NC3=O)c2)c1,-10.4%
7,CNc1ccc(SC(F)(F)F)cc1C(=O)c1ccccc1,11.3%
8,CC1=NN(C(=O)c2ccc(Cl)cc2)C(O)(c2cccnc2)C1 (stereo unspecified),9.1%
9,O=[N+]([O-])c1ccc(CSc2cccc3cccnc23)cc1,-2.4%
10,Cc1ccc2c(c1)N1C(=O)c3ccccc3C1C1=C(CC(C)(C)CC1=O)N2 (stereo unspecified),-6.7%
11,COc1ccc2c(=O)cc(C(F)(F)F)oc2c1,5.1%
12,CC(=O)C1=C(O)C(=O)N(c2nc3ccccc3s2)C1c1ccc(F)cc1 (stereo unspecified),-5.2%
13,CCOc1ccc(NC(=O)CN(Cc2ccccc2)S(=O)(=O)c2ccc(OC)c(OC)c2)cc1,10%
14,COc1cc(OC)cc(C(=O)NCCC2=CCCCC2)c1,-6.6%
15,Cc1ccc(NC(=O)CSc2nc(O)c(Cc3ccccc3)c(=O)n2-c2ccccc2)cc1,10.6%
16,COc1ccccc1OCC(=O)Nc1nc(-c2cccs2)c(NC(=O)c2ccccc2)s1,9.7%
17,CSc1ccccc1N=Cc1nc(-c2ccco2)oc1O,-3.1%
18,O=C(c1cc(-c2ccccc2)nc2ccccc12)N1CCc2ccccc2C1,10.1%
19,CCOc1ccc(/C=C2/NC(=O)NC2=O)cc1Cl,-14.7%
20,CC1(C)CC(C(CCN)c2ccc(F)cc2)CCO1 (stereo unspecified),6.8%
21,CCc1cc(=O)oc2cc(OCC(=O)c3ccc(Cl)cc3)ccc12,10.5%
22,O=C(Nc1c(Cl)cccc1Cl)C1C2CC/C=C\CC/C=C/CCC21 (stereo unspecified),3.6%
23,CC1(C)CC(=O)C=C(NCCN2CCN(C(=O)Nc3ccccc3)CC2)C1,-16.1%
24,CCCCNCCCCCOc1cccc(OC)c1,8.6%

row,Structure (SMILES),displacement
1,CC(=O)N(C)c1ccc(NC(=O)COc2ccc(Cl)cc2Cl)cc1,-16.3%
2,COc1ccc(N(CC(=O)NC(C)c2ccccc2)S(=O)(=O)c2ccc(OC)c(OC)c2)cc1 (stereo unspecified),-4.7%
3,O=C(O)C1C(C(=O)Nc2cccc(Cl)c2)C2C=CC1C21CC1 (stereo unspecified),13.8%
4,O=C(NCCc1ccccc1)c1ccc(I)cc1,9.7%
5,Cc1ccc(NC(=S)NC(=O)C(=O)Nc2ccccc2)cc1,10.5%
6,CC(C)CNC(=O)C(=O)Nc1cccc(Cl)c1Cl,4.3%
7,O=[N+]([O-])c1ccc2nc(SCCc3ccccc3)sc2c1,-7.6%
8,CCOc1ccc(OCC)c(C2C(C#N)=C(N)Oc3[nH]c(=O)[nH]c(=O)c32)c1 (stereo unspecified),-4.8%
9,Cc1cccc(Oc2cc(NC(=O)c3cccc(F)c3)cc([N+](=O)[O-])c2)c1,-4.7%
10,COc1ccc(-n2c(=O)c3c4c(sc3n3cnnc23)CCCC4)cc1,-4.4%
11,CCSCCOC(=O)C1=C(C)NC2=C(C(=O)CCC2)C1c1cc(Br)ccc1OC (stereo unspecified),0.4%
12,COc1ccc2oc(C(F)F)cc(=O)c2c1,14.6%
13,S=c1[nH]nc(-c2ccccc2Br)n1-c1ccccc1,10.4%
14,CCOC(=O)c1c(NC(=O)CN2CCN(C)CC2)sc2c1CCC(C)C2 (stereo unspecified),-1.1%
15,N#C/C(=C\c1cn(CC(=O)Nc2ccccc2)c2ccccc12)C(=O)NCc1ccccc1,61.2%
16,O=C1OC(c2ccc(Br)cc2)=C/C1=C\c1cc([N+](=O)[O-])ccc1Cl,-14.1%
17,CCOc1ccc(C2=C/C(=C/c3cccs3)C(=O)O2)cc1,5.5%
18,CCOc1ccc(N2C(=O)/C(=C/c3ccccc3OC)SC2=S)cc1,-3.4%
19,S=C(Nc1ccccc1)Nc1ccc(Oc2ccc(NC(=S)Nc3ccccc3)cc2)cc1,4.6%
20,Cc1c(Br)c(=O)[nH]c(=O)n1Cc1ccccc1,-8.1%
21,C#CCOc1ccc(/C=C2\C(=O)NC(=O)N(c3ccc(OCC)cc3)C2=O)cc1Br,-32.4%
22,Cc1cc(=O)n(C)c(=O)n1CCCCO,-6.1%
23,Cc1ccc2c(c1)N(C(=O)CN1C(=O)c3ccccc3C1=O)C(C)(C)c1ssc(=S)c1-2,-3%
